From publication PMC4336329 (PLoS ONE, 2015)
Screen size: about 310,000 compounds; about 14,000 (4.5%) showed an effect of 50% or more. Effects have a minus sign here. The list shows a part of the results.

The molecules below were run against human ether-à-go-go-related gene (hERG) potassium channel (human, UniProt Q12809) (assay: primary screen, population patch clamp on CHO cells stably expressing hERG).
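Note: peak tail current of the secondary pulse compared with the same well before compound.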

Sequence of human ether-à-go-go-related gene (hERG) potassium channel (Q12809 whole entry, looked up): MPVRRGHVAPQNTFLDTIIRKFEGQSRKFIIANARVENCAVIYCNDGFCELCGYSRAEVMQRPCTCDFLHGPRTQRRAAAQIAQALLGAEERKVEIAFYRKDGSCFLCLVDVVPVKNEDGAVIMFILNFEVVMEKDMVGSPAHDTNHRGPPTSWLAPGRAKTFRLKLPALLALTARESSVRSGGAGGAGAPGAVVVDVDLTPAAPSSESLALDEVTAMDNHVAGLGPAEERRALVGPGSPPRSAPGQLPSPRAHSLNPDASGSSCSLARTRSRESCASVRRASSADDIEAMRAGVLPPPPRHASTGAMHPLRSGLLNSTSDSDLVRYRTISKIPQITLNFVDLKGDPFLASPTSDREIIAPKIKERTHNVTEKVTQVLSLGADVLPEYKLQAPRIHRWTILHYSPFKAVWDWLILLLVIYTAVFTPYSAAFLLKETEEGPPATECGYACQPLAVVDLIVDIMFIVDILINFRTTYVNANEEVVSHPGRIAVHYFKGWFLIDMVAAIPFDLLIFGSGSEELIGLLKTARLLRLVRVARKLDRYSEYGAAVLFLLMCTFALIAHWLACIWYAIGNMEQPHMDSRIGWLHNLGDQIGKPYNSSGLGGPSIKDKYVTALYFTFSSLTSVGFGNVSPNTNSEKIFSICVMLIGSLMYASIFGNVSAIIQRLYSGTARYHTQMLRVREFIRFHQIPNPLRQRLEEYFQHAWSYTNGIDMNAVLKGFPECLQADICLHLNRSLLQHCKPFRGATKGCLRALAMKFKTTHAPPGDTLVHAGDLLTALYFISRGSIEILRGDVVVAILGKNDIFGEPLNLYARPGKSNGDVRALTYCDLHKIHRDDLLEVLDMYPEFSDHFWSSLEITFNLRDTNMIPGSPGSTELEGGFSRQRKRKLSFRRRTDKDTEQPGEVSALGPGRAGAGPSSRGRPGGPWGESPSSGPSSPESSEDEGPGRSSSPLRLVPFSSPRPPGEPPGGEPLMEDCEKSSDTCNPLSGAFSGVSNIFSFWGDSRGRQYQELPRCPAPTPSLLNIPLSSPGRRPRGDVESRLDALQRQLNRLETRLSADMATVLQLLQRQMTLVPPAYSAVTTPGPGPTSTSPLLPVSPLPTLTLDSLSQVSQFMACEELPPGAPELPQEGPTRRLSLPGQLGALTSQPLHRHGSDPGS

Row | SMILES | hERG current change (%, negative = inhibition) at 10uM [%]
1 | CCN1C(=O)[C@H]2[C@@H](c3ccc(C)cc3)N3C(=O)N(c4cccc(Br)c4)C(=O)[C@@]3(CC(C)C)[C@H]2C1=O | 1.34
2 | COc1ccc(N2CCN(C(=O)Cn3cnc4c3c(=O)n(C)c(=O)n4C)CC2)cc1 | 5.48
3 | CCC(=O)N1CCN(c2ccccc2NC(=O)c2cccc(C)c2)CC1 | -49.4
4 | COc1ccc(Br)cc1CNC(=O)CCNC(=O)Cn1ccc2ccccc2c1=O | -13.2
5 | N#Cc1cc(C(=O)c2ccccc2O)cn(-c2ccc(Cl)cc2)c1=O | -38.7
6 | Cc1ccc(/C(O)=C2\C(=O)C(=O)N(C)C2c2ccc(F)cc2)cc1 (centres unmarked) | 21.1
7 | O=C(O)C1[C@H]2C(=O)N(Cc3cccs3)C[C@]23C=C[C@H]1O3 (some centres unmarked) | 4.79
8 | CCCN(CCC)CC(O)COc1ccc([N+](=O)[O-])cc1 (centres unmarked) | -77.1
9 | Cn1nc(C(F)(F)F)cc1C(=O)Nc1ccc(-c2ccno2)cc1 | 16.8
10 | CCNc1nc(N)nc(Oc2ccc(OCCOc3ccccc3)nn2)n1 | -2.96
11 | CS(=O)(=O)c1ccc(Cl)c(NC(=O)CSc2n[nH]c(-c3cccs3)n2)c1 | -18.9
12 | CCOC(=O)CNC(=O)CN1C(=O)CC(c2ccccc2)S(=O)(=O)c2ccccc21 (centres unmarked) | -8.24
13 | COC(=O)NCC(c1cccnc1)N1CCOCC1 (centres unmarked) | 3.17
14 | Oc1ccc(N=Cc2cc(Br)c(N3CCOCC3)o2)cc1 | -4.21
15 | Cc1cc(SC#N)cc(C)c1NC(=O)CCl | 10.5
16 | C=CCn1c(SC(C)C(=O)Nc2ccc(Cl)cn2)nnc1C1CC1 (centres unmarked) | -32.6
17 | COC(=O)c1ccc(OC(=O)CS(=O)c2ccccc2[N+](=O)[O-])cc1 (centres unmarked) | 31
18 | Cc1ccc(C2=NS(=O)(=O)N(C)C(C(=O)NC3CCCCC3)=C2)cc1 | 16.6
19 | COc1ccc(S(=O)(=O)N2CCOC23CCN(C(=O)c2ccccc2OC)CC3)cc1 | -19.8

Row | SMILES | hERG current change (%, negative = inhibition) at 10uM [%]
20 | CC(C)CCNC(=O)CSc1nnc(-c2ccc(S(=O)(=O)N3CCCC3)cc2)n1C | 29.5
21 | Cc1ccc(N(Cc2cc3ccc(C)cc3[nH]c2=O)C(=O)c2ccco2)c(C)c1 | 0.0198
22 | Cn1c(SCC(=O)N/N=C/c2ccc([N+](=O)[O-])s2)nnc1-c1ccccc1 | -32.4
23 | O=C(CCCOc1ccccc1)Nc1nc2ccccc2[nH]1 | 3.82
24 | C=CCn1c(SCc2cccc3ccccc23)nnc1-c1cccnc1 | -36.8
25 | CCCc1cc(=O)[nH]c(SCC(N)=O)n1 | -7.67
26 | Cc1cc(C)c(NC(=O)COc2ccc(-n3cnnn3)cc2)c(C)c1 | -30.1
27 | CCN(CC(=O)Nc1ccccc1OC)CC(=O)Nc1sccc1C#N | -9.33
28 | CCN1C(=O)c2ccccc2Sc2ccc(C(=O)NC(C)C)cc21 | -0.837
29 | Cc1ccc(/C=C/C(=O)Nc2ccc(N(C)C)cc2)o1 | -14.9
30 | O=C(COC(=O)c1cccc(OC(F)F)c1)NC(=O)NC1CCCCC1 | 11.1
31 | Cc1cccc(C(C)C)c1NC(=O)COC(=O)c1cccc(S(=O)(=O)N2CCc3ccccc3C2)c1 | 5.41
32 | Cc1sc2nc(CSc3ccccc3)nc(NCCN(C)C)c2c1C | -72.2
33 | CCN(CC)CC#CC(O)(c1ccccc1)c1ccccc1 | -42.5
34 | COC(=O)C1=C(C)NC(=O)/C1=C\c1cccs1 | -1.2
35 | COC(=O)C1=CN(c2ccc(OC)cc2)C=C(C(=O)OC)C1c1ccc([N+](=O)[O-])cc1 | -16.8
36 | CCC(=O)Nc1nc2nc(-c3ccccc3)cc(=O)n2[nH]1 | 26.5
37 | Cc1ccccc1Nc1nc(N)nc(CSc2nnc3sc4ccccc4n23)n1 | -5.48
38 | CC(NC(=O)c1ccco1)C(=O)OCC(=O)c1ccc(Cl)s1 (centres unmarked) | 24.9

Row | SMILES | hERG current change (%, negative = inhibition) at 10uM [%]
39 | COc1cc(CNCc2ccc(OC)cc2OC)cc(OC)c1.O=C(O)C(=O)O | -29.5
40 | Oc1ccc(N2CCN(Cc3cc4c(cc3Br)OCCO4)CC2)cc1 | -23.9
41 | COc1ccccc1OCC(=O)Nc1cc(S(=O)(=O)N2CCCCC2)ccc1N1CCCCC1 | 2.21
42 | COc1ccc2c(c1)c(CC(=O)Nc1ccccc1OC)c(C)n2C(=O)c1ccc(Cl)cc1 | 6.99
43 | C/C(CCc1ccc2c(c1)OCO2)=N\N=C(/N)SC1CC(=O)N(c2ccc(Cl)cc2)C1=O (centres unmarked) | 9
44 | COc1ccccc1NC(=O)N1CCCC1C(=O)NCc1ccc(F)cc1 (centres unmarked) | 0.281
45 | O=C(c1ccc(Cl)c(S(=O)(=O)N2CCOCC2)c1)N1CCCCCC1 | 6.31
46 | COCCCNC(=S)NNC(=S)NCCCOC | 6.55
47 | COc1ccc(Cc2c(O)nc(SCC(=O)c3ccc(OC)cc3)[nH]c2=O)cc1 | 1.35
48 | CC1Sc2ccc(Cl)cc2-c2nc(N)ncc21 (centres unmarked) | 10.7
49 | Cc1cc(C(=O)N/N=C/c2ccc3c(c2)OCO3)c(C)n1-c1ccc(F)cc1 | 13.1
50 | COc1ccc2cc(CN(Cc3ccco3)Cc3nnnn3C3CCCCC3)c(=O)[nH]c2c1 | -19.4
51 | CCCC(C(=O)NCc1ccco1)N(C(=O)CNS(=O)(=O)c1ccc(Cl)cc1)C1CCCC1 (centres unmarked) | -27.8
52 | COc1cc(/C=N/NC2=NS(=O)(=O)c3ccccc32)cc(OC)c1OC | 8.6
53 | CC(=O)C1(c2ccccc2)CCNCC1 | 12
54 | O=C(Cc1ccc(Br)cc1)N1CCCCCC1 | -0.523
55 | CC(C)(C)NC(=O)CSc1nc2ccccc2n1-c1ccccc1 | -11.3
56 | CCOCCn1c(SC(C)C(C)=O)nc2c1c(=O)[nH]c(=O)n2C (centres unmarked) | -42.8
